# Data taken from publication PMC5392987.
# Sequences of proteins named here, by UniProt entry; tags and fusion partners are left off.
# UniProt A1ZAW0: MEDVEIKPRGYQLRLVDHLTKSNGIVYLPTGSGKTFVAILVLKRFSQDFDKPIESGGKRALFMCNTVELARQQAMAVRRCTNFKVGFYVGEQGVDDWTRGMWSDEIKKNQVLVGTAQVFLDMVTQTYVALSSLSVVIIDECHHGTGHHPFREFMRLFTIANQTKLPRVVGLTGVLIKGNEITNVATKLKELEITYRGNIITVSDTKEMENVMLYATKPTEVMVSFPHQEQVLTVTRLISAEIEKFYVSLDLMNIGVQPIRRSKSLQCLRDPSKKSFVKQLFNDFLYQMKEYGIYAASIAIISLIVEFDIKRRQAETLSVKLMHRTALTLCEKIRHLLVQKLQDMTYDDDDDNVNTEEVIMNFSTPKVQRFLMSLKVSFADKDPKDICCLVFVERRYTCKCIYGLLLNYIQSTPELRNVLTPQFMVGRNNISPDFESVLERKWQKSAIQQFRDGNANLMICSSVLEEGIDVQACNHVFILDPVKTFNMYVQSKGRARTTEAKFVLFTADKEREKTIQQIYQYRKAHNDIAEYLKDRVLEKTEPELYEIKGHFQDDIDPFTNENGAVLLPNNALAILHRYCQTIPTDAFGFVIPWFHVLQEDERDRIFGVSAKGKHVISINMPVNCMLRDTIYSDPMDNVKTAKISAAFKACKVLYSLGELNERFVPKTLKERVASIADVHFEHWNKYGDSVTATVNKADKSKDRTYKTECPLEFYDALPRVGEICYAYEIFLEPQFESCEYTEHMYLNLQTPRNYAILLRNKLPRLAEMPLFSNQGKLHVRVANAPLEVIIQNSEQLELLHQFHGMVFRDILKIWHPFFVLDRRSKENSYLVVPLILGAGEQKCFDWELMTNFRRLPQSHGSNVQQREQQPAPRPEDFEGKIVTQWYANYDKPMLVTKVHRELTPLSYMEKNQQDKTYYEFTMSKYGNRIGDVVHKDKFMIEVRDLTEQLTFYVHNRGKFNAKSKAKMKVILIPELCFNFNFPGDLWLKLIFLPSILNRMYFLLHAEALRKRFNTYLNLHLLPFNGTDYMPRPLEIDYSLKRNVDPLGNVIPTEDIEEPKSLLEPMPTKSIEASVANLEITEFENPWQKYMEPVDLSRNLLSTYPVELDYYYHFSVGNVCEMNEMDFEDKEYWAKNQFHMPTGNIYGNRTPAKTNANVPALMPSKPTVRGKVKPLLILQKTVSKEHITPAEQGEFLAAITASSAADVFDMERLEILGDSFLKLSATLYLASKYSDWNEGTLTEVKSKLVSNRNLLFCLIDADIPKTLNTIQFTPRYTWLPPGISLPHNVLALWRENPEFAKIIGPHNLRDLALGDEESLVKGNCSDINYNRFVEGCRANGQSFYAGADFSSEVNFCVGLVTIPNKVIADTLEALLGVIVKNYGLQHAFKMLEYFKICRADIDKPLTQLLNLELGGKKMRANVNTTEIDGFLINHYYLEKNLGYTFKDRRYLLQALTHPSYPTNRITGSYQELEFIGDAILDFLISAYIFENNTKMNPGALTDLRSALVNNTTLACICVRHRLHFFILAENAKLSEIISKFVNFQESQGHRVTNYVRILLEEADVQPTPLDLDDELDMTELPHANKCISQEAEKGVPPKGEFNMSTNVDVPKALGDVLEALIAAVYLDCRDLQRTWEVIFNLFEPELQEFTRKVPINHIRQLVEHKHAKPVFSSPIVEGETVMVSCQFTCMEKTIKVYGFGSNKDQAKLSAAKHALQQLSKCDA
# No constants are given. Whether binding was seen depends on the method and setting. In cells and extracts the contact can be indirect. Some entries that bind do so weakly or less than the wild type. For some of these results: Where a sequence is shown, tags or fusion partners need not be part of it.
# What was measured:
# [1] = molecular target: T1, Symplekin (endogenous) (Drosophila melanogaster (endogenous in Dmel-2 cells)) (UniProt Q8MSU4); test: co-IP; endogenous Dcr2 or Symplekin immunoprecipitated from 175 ug refined nuclear extract of Dmel-2 cells, dialysed in Buffer D (20 mM HEPES/KOH pH 7.9, 20% glycerol, 100 mM KCl, 0.2 mM EDTA, 0.5 mM DTT); western blot
# T1 sequence: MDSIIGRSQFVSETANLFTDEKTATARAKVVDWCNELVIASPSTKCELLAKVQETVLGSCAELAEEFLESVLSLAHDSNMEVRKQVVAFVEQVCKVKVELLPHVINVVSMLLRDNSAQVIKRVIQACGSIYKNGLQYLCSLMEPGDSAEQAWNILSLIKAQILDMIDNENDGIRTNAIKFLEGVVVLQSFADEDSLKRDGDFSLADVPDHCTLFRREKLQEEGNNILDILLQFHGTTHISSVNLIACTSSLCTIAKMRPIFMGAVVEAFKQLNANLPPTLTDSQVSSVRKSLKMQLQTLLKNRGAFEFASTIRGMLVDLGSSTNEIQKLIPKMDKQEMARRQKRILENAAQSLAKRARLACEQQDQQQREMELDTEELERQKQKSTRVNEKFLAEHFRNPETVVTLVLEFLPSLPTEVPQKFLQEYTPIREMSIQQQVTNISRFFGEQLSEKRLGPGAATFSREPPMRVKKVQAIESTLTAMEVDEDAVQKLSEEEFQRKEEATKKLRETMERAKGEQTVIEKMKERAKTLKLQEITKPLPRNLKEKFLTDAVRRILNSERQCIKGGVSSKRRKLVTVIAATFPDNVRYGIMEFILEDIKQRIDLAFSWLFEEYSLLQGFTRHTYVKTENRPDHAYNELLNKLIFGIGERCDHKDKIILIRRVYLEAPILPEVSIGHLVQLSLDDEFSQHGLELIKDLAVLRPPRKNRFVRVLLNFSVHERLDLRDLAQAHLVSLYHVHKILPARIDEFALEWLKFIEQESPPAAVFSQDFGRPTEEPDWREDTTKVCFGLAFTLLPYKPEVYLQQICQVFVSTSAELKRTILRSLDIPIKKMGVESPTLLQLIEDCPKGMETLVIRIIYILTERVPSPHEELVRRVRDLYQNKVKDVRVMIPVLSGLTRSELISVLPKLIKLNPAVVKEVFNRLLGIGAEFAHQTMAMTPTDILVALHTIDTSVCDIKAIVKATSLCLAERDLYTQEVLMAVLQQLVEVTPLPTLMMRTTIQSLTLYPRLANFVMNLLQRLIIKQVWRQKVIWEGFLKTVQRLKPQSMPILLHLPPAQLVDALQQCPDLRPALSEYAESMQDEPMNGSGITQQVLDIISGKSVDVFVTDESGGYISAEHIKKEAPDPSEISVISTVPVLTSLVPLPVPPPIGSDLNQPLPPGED
# [2] = molecular target: T2, HA-Symp (272-1165) (Drosophila melanogaster) (UniProt Q8MSU4); test: co-IP; anti-HA immunoprecipitation of HA-tagged proteins stably expressed in Dmel-2 cells, from cell lysates; western blot for endogenous Dcr2
# T2 sequence: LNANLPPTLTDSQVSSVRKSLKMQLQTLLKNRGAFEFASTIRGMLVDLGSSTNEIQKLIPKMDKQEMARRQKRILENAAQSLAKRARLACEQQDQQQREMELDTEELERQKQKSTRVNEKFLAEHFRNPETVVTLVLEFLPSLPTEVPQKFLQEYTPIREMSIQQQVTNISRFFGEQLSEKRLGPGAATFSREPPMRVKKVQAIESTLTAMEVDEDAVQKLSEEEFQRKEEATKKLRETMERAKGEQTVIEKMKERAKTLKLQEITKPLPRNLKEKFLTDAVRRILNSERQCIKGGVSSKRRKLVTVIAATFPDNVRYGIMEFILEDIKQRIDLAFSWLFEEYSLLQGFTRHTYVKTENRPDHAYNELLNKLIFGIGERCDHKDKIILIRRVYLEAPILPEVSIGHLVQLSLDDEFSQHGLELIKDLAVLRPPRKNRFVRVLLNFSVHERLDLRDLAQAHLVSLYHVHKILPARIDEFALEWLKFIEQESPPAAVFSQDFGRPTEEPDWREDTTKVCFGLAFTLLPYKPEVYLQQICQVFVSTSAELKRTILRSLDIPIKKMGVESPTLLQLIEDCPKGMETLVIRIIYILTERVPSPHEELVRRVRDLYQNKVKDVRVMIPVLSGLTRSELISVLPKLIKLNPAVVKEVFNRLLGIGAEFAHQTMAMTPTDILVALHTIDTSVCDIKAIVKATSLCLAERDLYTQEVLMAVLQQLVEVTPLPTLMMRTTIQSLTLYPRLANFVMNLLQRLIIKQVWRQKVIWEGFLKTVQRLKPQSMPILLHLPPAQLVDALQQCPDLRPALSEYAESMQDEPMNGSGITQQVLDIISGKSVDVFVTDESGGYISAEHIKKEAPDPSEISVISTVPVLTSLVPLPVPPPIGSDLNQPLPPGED
# [3] = molecular target: T3, HA-Symp (1-271) (Drosophila melanogaster) (UniProt Q8MSU4); test: as above
# T3 sequence: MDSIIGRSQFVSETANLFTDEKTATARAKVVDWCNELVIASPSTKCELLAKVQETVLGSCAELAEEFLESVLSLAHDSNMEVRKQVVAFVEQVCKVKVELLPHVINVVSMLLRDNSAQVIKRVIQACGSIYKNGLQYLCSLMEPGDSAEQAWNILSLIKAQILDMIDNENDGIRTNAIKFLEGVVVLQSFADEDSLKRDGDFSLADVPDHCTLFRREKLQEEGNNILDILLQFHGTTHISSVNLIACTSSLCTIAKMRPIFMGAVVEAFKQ
# [4] = molecular target: T4, HA-tagged full-length Symplekin (Drosophila melanogaster) (UniProt Q8MSU4); test: as above
# T4 sequence: T1 sequence
substance,measurement,setting,value
Dicer2 (endogenous) (from UniProt A1ZAW0 1-1722) (enzyme),binding,[1],binds
same,binding,[2],no binding
same,binding,[3],binds
same,binding,[4],binds
